Results taken from PubChem BioAssay AID1345082 (National Center for Advancing Translational Sciences (NCATS), 2018).
In all, about 94,000 compounds went through this assay and about 4,000 (4.3%) were called active. The shares of active, inactive and inconclusive entries below differ from those in the screen. Calls come from the whole dose curve; as a rule, active = well fitted inhibition curve with a large enough effect; inconclusive = small, poorly fitted or top-dose-only effect; inactive = no such curve, though single readings can be large or run the other way. Where the call is inconclusive, the potency comes from a doubtful curve fit.

Assay: Cytotoxic Profiling in NIH 3T3 Cell Line of Diverse Libraries Using Quantitative High-Throughput Screening; note: nearly all actives have a fitted effect of over 55% in size
Conditions: NIH 3T3 viability, CellTiter-Glo ATP luminescence, 48-72 h; series mostly up to 96.7 µM
Outline: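 NIH 3T3 cells at 400 cells/well received 23 nL of compound by pintool and were incubated 48 or 72 h at 37 °C. Viability was read as ATP-coupled CellTiter-Glo luminescence.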
Potency is the fitted concentration of half-maximal effect; tags give direction and shape of the fitted curve.

Structure (SMILES) | Potency
O=[S+]1([O-])CCN(Cc2ccc(-c3cnc4c(OCc5ccccc5)nccn34)cc2)CC1 | active: 22.4 µM
O=C1CN(C(=O)CCC[C@@H]2[C@H]3CCCN4CCC[C@@H](CN2Cc2ccccc2)[C@@H]34)CCN1 | inactive
COc1ccc(-c2ccc(-c3nc(CC(C)C)no3)cn2)c2cccnc12 | inconclusive: 44.7 µM [inhibitor, partial curve, poor fit]
CCc1cccc(NC(=O)Nc2cccc(-c3ccc(N4CCOCC4)nn3)c2)c1 | inconclusive: 50.1 µM [inhibitor, partial curve, poor fit]
COc1ccccc1C(=O)NCCNC(=O)c1cccc(-c2cc(F)ccc2OC)c1 | inconclusive: 44.7 µM [inhibitor, partial curve, poor fit]
COc1ccc(CN2CC(Oc3ccccc3C(=O)NC3CC3)C2)cc1OC | inactive
Cc1ccc2c(n1)OC(COc1ccccc1)CN(Cc1cccs1)C2=O (configuration not stated) | inconclusive: 28.2 µM [inhibitor, partial curve]
CNC(=O)N1CCC(n2c(C)cnc2-c2ccccc2)CC1 | inactive
Cc1nc(C)c(C(=O)N[C@@H]2CN(Cc3ccncc3)C[C@H]2CN(C)C)s1 | inactive
Cn1ncc2c(C(=O)N3CCC(c4ccccc4)CC3)cc(-c3ccc(F)cc3)nc21 | active: 39.8 µM
CCC1Oc2ccc(NC(=O)Cc3cccs3)cc2CN(C2CCCc3ccccc32)C1=O (configuration not stated) | inconclusive: 31.6 µM [inhibitor, partial curve]
Cc1ccc(F)cc1CC(=O)N1C[C@@H](CN2CCOCC2)[C@@H](CO)C1 | inactive
COc1cc(OC)cc(C(=O)NC2CCN(c3cc(C(F)(F)F)nc(C)n3)CC2)c1 | inconclusive: 31.6 µM [inhibitor, partial curve, poor fit]
COc1ccc(NC2CN(C(=O)OC(C)(C)C)C2)cc1 | inactive
CCCOc1nccnc1NC1CCN(C(=O)NCc2ccco2)CC1 | inconclusive: 15.8 µM [inhibitor, full curve]
NCCCC(=O)N1CCCC2(Cc3ccccc3CN2C(=O)Cc2cccc(Cl)c2)C1 (configuration not stated) | inconclusive: 50.1 µM [inhibitor, partial curve, poor fit]
COc1ccc(NC(=O)N2c3ccccc3CC2c2nc(C3CC3)no2)c(OC)c1 (configuration not stated) | inactive
CCc1nc(-c2c3n(c(=O)n(Cc4cccc(Br)c4)c2=O)CCCC3)no1 | inconclusive: 70.8 µM [inhibitor, partial curve, poor fit]
Cc1ccc(S(=O)(=O)NC[C@H]2O[C@@H](CO)[C@@H](O)[C@H]2N2CCN(c3ccc(F)cc3)CC2)cc1 | inactive
O=C1N(C2CCCCC2)C[C@H]2CN(Cc3ncc[nH]3)CCN12 | inactive
CNC(=O)c1cc(C2CC2)nc2c1c(C1CCCN1C(=O)c1ccc(Cl)nc1)nn2C (configuration not stated) | inactive
CCc1cc(=O)n(CC(=O)Nc2cc(Cl)ccc2C)c(N2CCOCC2)n1 | inconclusive: 56.2 µM [inhibitor, partial curve, poor fit]
C[S+](=O)([O-])N1CC2(CCN(Cc3ccccn3)CC2)Cc2ccccc21 | inactive

Structure (SMILES) | Potency
COc1ccc(-c2cc(N3CCC(NC(=O)CCc4ccccc4OC)CC3)n[nH]2)cc1 | inconclusive: 39.8 µM [inhibitor, partial curve, poor fit]
COc1ccc(CN2CCn3c(nnc3-c3ccc(Cl)cc3)C2)cc1 | inconclusive: 39.8 µM [inhibitor, partial curve]
CCOc1ccccc1CNC(=O)c1ccc2c(c1)CC(=O)N2C | inconclusive: 44.7 µM [inhibitor, partial curve, poor fit]
COc1ccc(-c2cc(C(=O)NCCc3ccccc3F)c3cnn(C)c3n2)cc1 | inconclusive: 50.1 µM [inhibitor, partial curve, poor fit]
CC(C)NC(=O)NC[C@H]1O[C@H](Cc2cc(-c3ccc(F)cc3)on2)CC[C@@H]1O | inactive
Cc1nn2c(c1-c1cccc3cn[nH]c13)N(C(=O)COc1ccccc1C(N)=O)CCC2 | active: 25.1 µM
CO[C@H]1C(=O)N(C2CCN(C(=O)Nc3ccc4c(c3)OCCO4)CC2)[C@H]1c1ccncc1 | inactive
O=C(O)CCC(=O)N1CCCC2(Cc3ccccc3N(C(=O)c3ccc(Cl)cc3)C2)C1 (configuration not stated) | inconclusive: 70.8 µM [inhibitor, single point]
O=C1CN(C(=O)c2ccc(F)cc2)CC(O)CN1Cc1ccc(Cl)cc1 (configuration not stated) | inconclusive: 70.8 µM [inhibitor, single point]
CN1CC(=O)N(C2CCCNC2)Cc2c1ncnc2N1CCC(N)CC1 (configuration not stated) | inactive
O=C1N(CC2CC2)CCOC12CCN([S+](=O)([O-])c1ccc(C(F)(F)F)cc1)CC2 | inconclusive: 56.2 µM [inhibitor, partial curve, poor fit]
COc1ccccc1Nc1ccnc(N2CCC(C(=O)NC3CC3)CC2)n1 | inconclusive: 50.1 µM [inhibitor, partial curve, poor fit]
COc1ccc(S(=O)(=O)N2CC(c3noc(-c4cccnc4)n3)C2)cc1Cl | inactive
CN1C[C@@H](NC(=O)Nc2ccc(C(F)(F)F)cc2)C[C@H]1c1nc(-c2ccc(Cl)cc2)no1 | active: 8.91 µM
Cc1nn(-c2cccc(Br)c2)c(C)c1[C@@H]1C=C[C@@H](NC(=O)c2cccs2)C1 | inconclusive: 56.2 µM [inhibitor, partial curve, poor fit]
CC(C)(C)OCC(O)CN1CCC(=O)N(CC2CC2)Cc2ccccc21 (configuration not stated) | inactive
O=C1CCN(C(=O)C2CCOCC2)CCCC(c2nc(-c3ccccc3)no2)CCN1 (configuration not stated) | inactive
Clc1ccc(-c2cnc([C@@H]3COCCN3Cc3ccccc3)[nH]2)s1 | active: 79.4 µM
O=C1CCC(C(=O)N2CCc3c(n(CCOc4ccccc4)n(-c4ccccc4)c3=O)C2)N1 (configuration not stated) | inconclusive: 63.1 µM [inhibitor, partial curve, poor fit]
CN1CCN(c2ccc3ncc(Nc4ccc5c(c4)OCCO5)n3n2)CC1 | inconclusive: 100 µM [inhibitor, partial curve, poor fit]
CN(C)c1cccc(-c2cnc(NC(=O)C3(c4ccccc4)CC3)c3c2CCO3)c1 | inconclusive: 44.7 µM [inhibitor, partial curve, poor fit]
Fc1ccc(-c2nnc3ccc(NCCc4ccccn4)nn23)nc1 | inconclusive: 89.1 µM [inhibitor, partial curve]
CCOc1ccc(-c2cc3c(=O)n(CCNC(=O)C4(c5ccccc5)CC4)ccn3n2)cc1 | inactive

Structure (SMILES) | Potency
COC(=O)CNC(=O)C1CCN(c2nccc(Nc3ccccc3OC)n2)CC1 | inactive
O=C1NCCCCCCN(Cc2ccncc2)[C@@H]2CN(Cc3ccccn3)CC[C@H]12 | inactive
COc1ccc(F)cc1-c1ccc(CN2CCC(NC(=O)c3ccccc3C)C2)cc1 (configuration not stated) | inconclusive: 44.7 µM [inhibitor, partial curve, poor fit]
CCc1cc(N2CCCC(C(=O)c3sccc3C)C2)ncn1 (configuration not stated) | inactive
OC1(c2csc(CN3CCN(c4ccccn4)CC3)n2)CCN(Cc2ccc(F)cc2)CC1 | inconclusive: 70.8 µM [inhibitor, partial curve, poor fit]
COCc1cc(CC2(NCCC(C)C)COC2)no1 | inactive
O=C1Nc2ccccc2OCC12CCN(Cc1ccc(OC(F)(F)F)cc1)CC2 | inactive
Cc1noc(C)c1-c1cc2cc(CN(C)C)oc2c(NCc2ccccc2)n1 | inconclusive: 79.4 µM [inhibitor, partial curve]
O=C1NCc2ccccc2CC12CCN(CCCc1ccccc1)CC2 | inconclusive: 70.8 µM [inhibitor, single point]
CCCc1ccc2oc(C(=O)N(CC)Cc3ccncc3)c(C)c2c1 | inconclusive: 39.8 µM [inhibitor, partial curve, poor fit]
Cc1nn(Cc2ccccc2)c(C)c1[C@@H]1C=C[C@@H](NC(=O)C2CCCCC2)C1 | inconclusive: 31.6 µM [inhibitor, partial curve, poor fit]
CNC(=O)NCC(=O)N1CCCCCNC(=O)CC1c1ccccc1 (configuration not stated) | inactive
CCS[C@H]1CCN2C(=O)c3cc(-c4ccc(F)cc4F)ccc3NC(=O)[C@H]12 | inconclusive: 100 µM [inhibitor, partial curve, poor fit]
Cc1cn2nc(C(=O)Nc3ccc4c(c3)OCCO4)cc2c(N(C)Cc2ccccc2)n1 | inconclusive: 35.5 µM [inhibitor, partial curve, poor fit]
CS(=O)(=O)N[C@@H]1[C@@H](NC(=O)c2cn3ccsc3n2)[C@H]2CCO[C@H]21 | inactive
CC(C)NC(=O)C1CCN(c2nccc(Nc3ccccc3F)n2)CC1 | inconclusive: 50.1 µM [inhibitor, partial curve, poor fit]
COCCN(C)C(=O)C(C)(C)Oc1nn(Cc2cccnc2)c2ccc(COC)cc12 | inconclusive: 56.2 µM [inhibitor, partial curve, poor fit]
COCCNC(=O)c1ccc2nnc(-c3cccc(C(F)(F)F)c3)n2c1 | inactive
Cc1nn(-c2ccccc2)c2c1C(C1CC1)N(C1CN(C(=O)Cc3ccccn3)C1)C2=O (configuration not stated) | inconclusive: 31.6 µM [inhibitor, partial curve]
O=C(NCC1CCCCC1)C1CCCN(c2ccnc3ccnn23)C1 (configuration not stated) | inconclusive: 31.6 µM [inhibitor, partial curve]
CN1CCN(C(=O)C(C)(C)Oc2nn(CC3CC3)c3ccc(CN4CCCC4)cc23)CC1 | inconclusive: 112 µM [inhibitor, single point]
